# According to article PMC6919601, “Identification of Plasmodium dipeptidyl aminopeptidase allosteric inhibitors by high throughput screening” (PLoS ONE, 2019):
# The whole screen tested about 110,000 compounds, of which about 230 (0.21%) showed an effect of 50% or more. The list shows a part of the results.
# Target: DPAP1 (Plasmodium falciparum, UniProt Q8IIJ9)
# Assay: primary screen, percent inhibition; read by cleavage of a fluorogenic dipeptide substrate; higher = more effect of the substance
# Design: species or system P. falciparum D10 trophozoite lysates; single well
# 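Further: 30 min substrate incubation versus DMSO and 10 µM JCP410 controls.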
# Sequence of DPAP1 (Q8IIJ9 whole entry, looked up): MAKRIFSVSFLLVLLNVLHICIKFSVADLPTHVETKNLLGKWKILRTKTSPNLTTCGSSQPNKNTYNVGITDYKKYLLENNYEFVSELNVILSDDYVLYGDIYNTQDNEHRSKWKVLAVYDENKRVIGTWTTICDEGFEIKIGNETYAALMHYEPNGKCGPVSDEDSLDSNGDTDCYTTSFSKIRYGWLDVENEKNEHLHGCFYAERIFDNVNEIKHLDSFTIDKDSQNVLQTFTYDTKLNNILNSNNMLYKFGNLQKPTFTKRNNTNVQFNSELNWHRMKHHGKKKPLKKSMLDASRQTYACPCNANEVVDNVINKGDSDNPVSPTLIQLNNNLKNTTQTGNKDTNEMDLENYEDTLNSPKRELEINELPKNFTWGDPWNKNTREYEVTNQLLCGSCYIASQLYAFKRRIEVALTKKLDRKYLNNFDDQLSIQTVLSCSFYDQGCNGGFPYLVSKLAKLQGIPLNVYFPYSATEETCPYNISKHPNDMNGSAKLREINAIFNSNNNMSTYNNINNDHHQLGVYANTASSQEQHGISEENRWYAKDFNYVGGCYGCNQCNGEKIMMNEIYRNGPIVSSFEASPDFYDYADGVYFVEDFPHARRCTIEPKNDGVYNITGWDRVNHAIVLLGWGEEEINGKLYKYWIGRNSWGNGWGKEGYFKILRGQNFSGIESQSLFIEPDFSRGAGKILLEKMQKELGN
row,Structure (SMILES),% Inhibition @ 10 uM [%]
1,COc1ccc(-n2cnc3cc(NCc4ccccc4O)ccc32)cc1,1.93
2,CCOC(=O)c1sc(NC(=O)c2cc(=O)c3cc(C)c(C)cc3o2)c(C(=O)OCC)c1C,1.9
3,Cc1n[nH]c(C)c1CCc1nc2c3ccccc3nc(NCCc3ccccc3)n2n1,-6.07
4,Cc1cc(C)c(NC(=O)C2CCCN2CCC(C)C)c(C)c1 (stereo not shown),2.58
5,COc1ccc(OC)c(C2C3=C(O)CC(C)(C)CC3=NC(C)=C2C(=O)Nc2c(F)cccc2F)c1 (stereo not shown),-3.46
6,O=C(Cn1ncc2c3ccccc3n(Cc3ccccc3)c2c1=O)N1CCc2ccccc2C1,-1.58
7,O=C(C1CC1)N1CCCN(C(=O)C2CC2)CC1,0.389
8,CC1CCCCC1N(C)C1CCN(C(=O)CNC(=O)/C=C/c2c(Cl)cccc2Cl)CC1 (stereo not shown),-1.05
9,COc1ccc2c(CNC3CCC(C)CC3)c(C(=O)O)[nH]c2c1 (stereo not shown),-4.76
10,Cn1c(=O)c2nc(-c3ccccc3O)[nH]c2n(C)c1=O,-5.2
11,COc1ccc2c3c([nH]c2c1)C(CCc1ccccc1)NCC3 (stereo not shown),2.65
12,Cc1sc2c(c1C)CSCC2=O,-1.57
13,COc1ccc(/C=C/C(=O)c2ccc(OC)cc2)cc1,3.34
14,CC(=O)c1c(O)cc(C(C)(C)C)n(-c2ccccc2)c1=O,-2.45
15,COc1ccccc1NC(=O)c1ccc(NC(=O)C(C)C)cc1,0.316
16,CCCNC(=O)c1nnc(Cc2cccc(F)c2)o1,-3.18
17,N/C(=N\c1ccccc1)Nc1nc(O)cc(CSc2ccc(Cl)cc2)n1,-8.41
18,Cc1cc(Br)ccc1NC(=O)c1ccc(F)cc1,-2.51
19,CC(=O)NS(=O)(=O)c1ccc(NC(=O)COc2ccc(Cl)cc2)cc1,0.245
20,COC(=O)c1cnn2c1NCN(Cc1ccccc1)C2,-2.88
21,COc1cccc(C(=O)NC2CCCCCC2)c1,-0.69
22,CCOc1ccc(N2C(=O)CC(N3CCC(C)CC3)C2=O)cc1 (stereo not shown),-0.988
23,CCc1ccc(CNCc2c(C(=O)O)[nH]c3cc(C)ccc23)cc1,1.8
24,CCCCC1CCC(C(=O)N(Cc2cccc(F)c2)C2CCS(=O)(=O)C2)CC1 (stereo not shown),6.67
25,CCc1nc(=O)c2c(COC)cc(C)nc2n1Cc1ccccc1,0.883

row,Structure (SMILES),% Inhibition @ 10 uM [%]
1,CCOC(=O)C1=C(N)Oc2ccc3ccccc3c2C1c1ccc(Br)cc1 (stereo not shown),1.26
2,CCOc1ccc(/C=C2\N=C(c3ccc(OC)cc3)OC2=O)cc1,3.58
3,Cc1ccnc2c(NCN3C(=O)C4CC=C(Cl)CC4C3=O)cccc12 (stereo not shown),2.7
4,COc1ccc(CNC(=O)C2CCCN(S(=O)(=O)N3CCC4(CC3)OCCO4)C2)cc1 (stereo not shown),-4.37
5,O=C(Nc1ccc(S(=O)(=O)NCCc2ccccc2)cc1)C1CC1,1.27
6,OC1CCCN(Cc2c(F)cccc2F)C1 (stereo not shown),-3.5
7,C/C(=C\c1ccccc1)CN1CCN(Cc2ccccc2)CC1,1.74
8,COc1ccc(S(=O)(=O)N2CC=C(C(=O)Nc3nccs3)CC2)cc1,-6.95
9,CCC(=O)N1CCN(C(=O)CC)C1c1ccccc1,-7.18
10,Cc1cccc(N2CCN(C(=O)c3cc(C)oc3C)CC2C)c1 (stereo not shown),2.63
11,Cn1cc(C[C@H](NC(=O)c2ccc(-c3ccccc3Cl)cc2)C(=O)NCC#N)c2ccccc21,-12.7
12,Cc1ccc2c(c1Br)C1(C(=O)N2)C(C#N)=C(N)Oc2[nH]nc(-c3ccc(F)cc3)c21 (stereo not shown),0.777
13,COc1ccccc1CNC(=O)c1cccc(C)c1,5.35
14,CC(=O)c1c(N2CCCC2)nc(=O)n(-c2ccccc2)c1C,1.27
15,Cc1cc(C(=O)N2CCC3(CC2)OCCO3)c2c(C)nn(-c3ccccc3Cl)c2n1,0.44
16,c1ccc2c(c1)CCOC2CNCC1COc2ccccc2O1 (stereo not shown),3.56
17,CC1(C)C(C(=O)N2CCN(C(=O)c3ccccc3)CC2)C1(C)C,7
18,COc1ccc(C(=O)Nc2c(-c3ccc(F)cc3)nc3cc(C)ccn23)cc1,-3.48
19,Cc1cc(C)nc(NC(=O)C(C)Oc2ccc(Cl)cc2Cl)c1 (stereo not shown),2.03
20,CCN(CC)S(=O)(=O)c1ccc(OC)c(OC)c1,3.51
21,CC(C)CSC(CC(=O)O)C(=O)O (stereo not shown),-3.48
22,Cc1cc(C)c(C)c(S(=O)(=O)NCC(=O)Nc2ccc(F)cc2)c1C,0.145
23,CN1C(=O)c2ccccc2C(C(=O)NCCCN2CCOCC2)C1c1c[nH]c2ccccc12 (stereo not shown),5.19
24,Nc1nnc(SCC(=O)N2CCc3ccccc3C2)s1,4.66
